Target: T1, M2 muscarinic acetylcholine receptor (Homo sapiens, UniProt P08172)
T1 chain: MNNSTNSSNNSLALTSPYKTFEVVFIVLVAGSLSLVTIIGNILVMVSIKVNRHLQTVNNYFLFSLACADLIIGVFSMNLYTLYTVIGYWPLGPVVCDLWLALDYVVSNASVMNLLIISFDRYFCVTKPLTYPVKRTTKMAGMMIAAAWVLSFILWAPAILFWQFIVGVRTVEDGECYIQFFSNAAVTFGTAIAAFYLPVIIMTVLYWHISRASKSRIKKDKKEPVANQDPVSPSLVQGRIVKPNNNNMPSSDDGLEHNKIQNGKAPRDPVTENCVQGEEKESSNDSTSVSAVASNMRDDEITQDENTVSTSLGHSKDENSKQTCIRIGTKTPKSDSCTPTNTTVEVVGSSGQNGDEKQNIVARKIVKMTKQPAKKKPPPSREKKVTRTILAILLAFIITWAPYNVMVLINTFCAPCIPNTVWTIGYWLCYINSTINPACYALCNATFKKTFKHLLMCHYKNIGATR
Test: [3H]-NMS radioligand binding, allosteric ternary complex model

- Kd: ~42 nM
B1: Gi1 heterotrimer (protein)
chain: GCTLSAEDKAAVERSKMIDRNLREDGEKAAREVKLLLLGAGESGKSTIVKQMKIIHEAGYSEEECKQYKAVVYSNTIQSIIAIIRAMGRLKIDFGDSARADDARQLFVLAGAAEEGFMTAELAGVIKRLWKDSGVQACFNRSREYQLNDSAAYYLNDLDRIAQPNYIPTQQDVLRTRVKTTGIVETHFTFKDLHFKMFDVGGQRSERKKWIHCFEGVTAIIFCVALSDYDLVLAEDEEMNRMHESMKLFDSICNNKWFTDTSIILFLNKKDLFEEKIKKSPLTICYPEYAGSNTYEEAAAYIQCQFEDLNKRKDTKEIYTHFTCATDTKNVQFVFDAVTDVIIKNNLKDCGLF
modifications: NMS-bound receptor
